# Measurements as given in PubChem BioAssay AID504845 (National Center for Advancing Translational Sciences (NCATS), 2011).
# Screen size: about 390,000 compounds; about 150 (0.038%) were called active. Inconclusive results, whose numbers are uncertain, are shown with a selection of clear calls. Calls follow the shape of the dose curve; as a rule, active = well fitted inhibition curve with a large enough effect; inconclusive = small, poorly fitted or top-dose-only effect; inactive = no such curve, though single readings can be large or run the other way. Where the call is inconclusive, the potency comes from a doubtful curve fit. Residues, ends and D or L forms follow the SMILES beside them. *: point of attachment. Boc = CC(C)(C)OC(=O)*
# Target: Regulator of G-protein signaling 4 (Homo sapiens) (UniProt P49798)
# Sequence of UniProt P49798 (P49798 whole entry, looked up): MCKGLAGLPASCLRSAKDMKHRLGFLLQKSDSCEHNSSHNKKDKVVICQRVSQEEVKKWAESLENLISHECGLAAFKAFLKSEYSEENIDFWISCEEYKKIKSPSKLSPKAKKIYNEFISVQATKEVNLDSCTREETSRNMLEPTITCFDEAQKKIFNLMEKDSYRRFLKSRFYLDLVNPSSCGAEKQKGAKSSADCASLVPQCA
# Test: Inhibitors of Regulator of G Protein Signaling (RGS) 4: qHTS; also: nearly all actives have a fitted effect of over 75% in size
# Settings: Transcreener GDP fluorescence polarization, RGS4-accelerated GTP hydrolysis; series mostly up to 114 µM
# Outline: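 MLSMR compounds (23 nl, pin-transferred) preincubated 10 min at room temperature with a 500nM (2x) first reagent, then RGS4 at 900nM (2x) plus Transcreener GDP mix added; fluorescence polarization (620/688 nm) read before and after 90 min at 30 °C.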
# % is scaled to controls: 0 for no effect and ±100 for the full control effect; potency is read from the fitted curve at half-maximal effect; tags tell the direction and shape of the fitted curve.
Compound,"activity change, negative = inhibition",Potency
CCOC(=O)c1cnc(-n2nc(C)cc2C)nc1NCc1ccc2c(c1)OCO2,inactive: 18.1% [at 11.4 µM],–
CCOC(=O)C1(Cc2ccccc2C(F)(F)F)CCN(C2CCSC2)CC1 (stereo unspecified),–,inactive
CC1=NN(c2ccccc2)C(=O)C1C=Nc1ccc(N(C)C)cc1 (stereo unspecified),–,"inconclusive: 44.7 µM [inhibitor, partial curve, poor fit]"
CC(C)[C@H](NC(=O)CNC(=O)OC(C)(C)C)C(=O)N[C@H](C=O)C(C)C (Boc-Gly-Val-Val-aldehyde),–,"inconclusive: 37.7 µM [inhibitor, partial curve, poor fit]"
CCOC(=O)c1sc(C)c(C(=O)NCC(C)(C)CN(C)C)c1N,–,"inconclusive: 89.1 µM [inhibitor, single point]"
Cc1ccc2sc(C)[n+](CCCS(=O)(=O)[O-])c2c1,–,inactive
O=C(Nc1nc(-c2ccc(S(=O)(=O)N3CCCC3)cc2)cs1)C1COc2ccccc2O1 (stereo unspecified),–,"inconclusive: 89.1 µM [inhibitor, single point]"
Nc1ccc(C(=O)NN2C(=O)[C@H](Cl)C2c2ccc(Cl)cc2)cc1 (stereo partly specified),–,"inconclusive: 89.1 µM [inhibitor, single point]"
COc1ccc2oc(=O)c(C(=O)OCc3ccccc3)cc2c1,–,"inconclusive: 50.1 µM [inhibitor, partial curve, poor fit]"
Cc1ccc2nc3c(cc2c1)CN(Cc1ccco1)C(=NCC1CCCO1)S3 (stereo unspecified),–,"inconclusive: 79.4 µM [inhibitor, partial curve, poor fit]"
CC1CCCN(CCC(=O)c2ccc(Br)cc2)C1 (stereo unspecified),–,"inconclusive: 17.8 µM [inhibitor, full curve, poor fit]"
CS(=O)(=O)c1cc([N+](=O)[O-])c(Sc2nc3ccccc3[nH]2)c([N+](=O)[O-])c1,–,"inconclusive: 50.1 µM [inhibitor, partial curve, poor fit]"
O=C(Nc1ccccc1)N1CCCC(c2nc(-c3cccs3)no2)C1 (stereo unspecified),–,inactive
Cc1cc(C)n(-c2nc(NCCN(C)C)c3c4c(sc3n2)CCCC4)n1,–,"inconclusive: 70.8 µM [inhibitor, single point]"
Cc1cc(C)cc(NC(=S)Nc2cccc3ccccc23)c1,–,"inconclusive: 44.7 µM [inhibitor, partial curve, poor fit]"
O=C(NCc1ccco1)c1cc2nc(C3CC3)cc(C(F)(F)F)n2n1,–,"inconclusive: 89.1 µM [inhibitor, single point]"
COc1ccc2c(c1)c(CC(=O)OCC(N)=O)c(C)n2C(=O)c1ccc(Cl)cc1,–,inactive
Cn1c(O)c(N=Nc2ccc(F)cc2)c2ccccc21,–,"inconclusive: 89.1 µM [inhibitor, single point]"
Cc1cc(C)cc(N2C(=O)C3C4C=CC(C4)C3C2=O)c1 (stereo unspecified),–,inactive
COc1ccccc1S(=O)(=O)N1CCN(c2nc(-c3cccs3)nc3ccccc23)CC1,–,inactive
Cc1sc2ncnc(Oc3ccc(-n4ccnc4)cc3)c2c1C,–,"inconclusive: 89.1 µM [inhibitor, single point]"
CN(C)C(=O)/N=N/C(=O)N(C)C,–,active: 2.99 µM

Compound,"activity change, negative = inhibition",Potency
COc1ccc(C2Nc3ccccc3C(=O)N2Cc2ccco2)cc1COc1c(C)cccc1C (stereo unspecified),–,"inconclusive: 44.7 µM [inhibitor, partial curve, poor fit]"
O=c1c(Cl)c(N/N=C/c2ccc(Br)cc2)cnn1-c1ccccc1,–,"inconclusive: 50.1 µM [inhibitor, partial curve, poor fit]"
CCc1sc(NC(=O)c2cc3ccccc3oc2=O)nc1-c1cccs1,–,"inconclusive: 100 µM [inhibitor, single point]"
COC(=O)c1c(-c2cccs2)csc1NC(=O)c1ccc(C(C)C)cc1,–,"inconclusive: 44.7 µM [inhibitor, partial curve, poor fit]"
C=CCSc1nnc(NC(=O)c2cccc(S(=O)(=O)N(C)c3ccccc3)c2)s1,–,"inconclusive: 89.1 µM [inhibitor, partial curve, poor fit]"
Cc1cc(C)n2nc(C(=O)N/N=C/c3c4ccccc4cc4ccccc34)nc2n1,–,"inconclusive: 10 µM [inhibitor, full curve, poor fit]"
CCCCC(=O)NNC(=S)NC(=O)c1ccc(C)cc1,–,"inconclusive: 50.1 µM [inhibitor, partial curve, poor fit]"
CCc1nc(N2CCCC(C)C2)c2oc3ccccc3c2n1 (stereo unspecified),–,"inconclusive: 56.2 µM [inhibitor, partial curve, poor fit]"
CC(=O)Nc1ccc(SCCN2CCN(CCc3ccccc3)CCC2=O)cc1,–,"inconclusive: 50.1 µM [inhibitor, partial curve, poor fit]"
O=C(N/N=C\c1cccnc1)c1cc(-c2ccc(Cl)s2)[nH]n1,–,"inconclusive: 39.8 µM [inhibitor, partial curve, poor fit]"
COCCCN1CC23C=CC(O2)C(C(=O)O)C3C1=O (stereo unspecified),–,"inconclusive: 28.2 µM [inhibitor, full curve, poor fit]"
S=c1[nH]nc(Cc2ccc(Br)cc2)n1/N=C/c1ccc(Cl)cc1,–,"inconclusive: 17.8 µM [inhibitor, full curve, poor fit]"
Cc1ccc(Cl)cc1NC(=O)C1CCCN1S(=O)(=O)c1ccc(-c2ccc(=O)[nH]n2)s1 (stereo unspecified),–,inactive
CCc1nnc(NC(=O)c2sc3nc4c(cc3c2N)CCCCC4)s1,–,"inconclusive: 79.4 µM [inhibitor, partial curve, poor fit]"
N#CC1=C(Nc2ccccc2)SC=C(c2ccccc2)N=C1N1CCOCC1,–,"inconclusive: 89.1 µM [inhibitor, single point]"
CC1C[N+](=C2C=C(N3CCOCC3)CC(C)(C)C2)CC(C)O1 (stereo unspecified),–,inactive
Cc1ccc(C)c(S(=O)(=O)N(C)Cc2cccs2)c1,–,inactive
COc1cc(/C=C/C(=O)c2ccc(C)cc2)ccc1OCC#N,–,"inconclusive: 100 µM [inhibitor, single point]"
Cc1cc(S(=O)(=O)N2CCOCC2)ccc1F,–,"inconclusive: 56.2 µM [inhibitor, partial curve, poor fit]"
CCOC(=O)C1=C(C)NC(C)=C(C(=O)OCC)C1c1ccc(Br)o1,–,inactive
CCOC(=O)c1c(S(=O)(=O)NCC(=O)N(C)Cc2ccccc2)c(C)n(C)c1C,–,inactive
COc1ccc(C(=O)Nc2ccc(-c3n[nH]c(=S)o3)cc2)cc1OC,–,"inconclusive: 10 µM [inhibitor, full curve, poor fit]"

Compound,"activity change, negative = inhibition",Potency
CCC[C@@H]1C[C@@]1(CCC)[C@@H](NP(=O)(c1ccccc1)c1ccccc1)c1ccc(C(=O)OC)cc1,–,inactive
COCC(=O)Nc1ccc(N2CCOCC2)c(S(=O)(=O)Nc2ccccc2OC)c1,–,"inconclusive: 79.4 µM [inhibitor, partial curve, poor fit]"
O=c1[nH]c(CSc2nnc(NCCCN3CCOCC3)s2)nc2cc(Cl)ccc12,–,inactive
COc1ccc(-n2nc(N)c(C(N)=O)n2)cc1,–,"inconclusive: 35.5 µM [inhibitor, full curve, poor fit]"
COc1cccc(N2CCN(c3ncnc4c3c(-c3ccccc3)cn4-c3ccc(F)cc3)CC2)c1,–,inactive
CC(NC(=O)/C=C/c1ccco1)c1nc2ccccc2n1Cc1c(Cl)cccc1Cl (stereo unspecified),–,"inconclusive: 17.8 µM [inhibitor, full curve, poor fit]"
Cc1cccc(CS(=O)(=O)Cc2ccc(C(=O)NCCCN3CCOCC3)o2)c1,–,inactive
C=CCn1c(COC)nnc1SCC(=O)c1ccc(F)cc1,–,"inconclusive: 89.1 µM [inhibitor, single point]"
CCCCOc1cccc(C(=O)NC(=S)Nc2ccc(Cl)c(C(=O)O)c2)c1,–,"inconclusive: 89.1 µM [inhibitor, partial curve, poor fit]"
CC(C)=NN/C(N)=N/C(=S)Nc1ccc(C)cc1,–,"inconclusive: 100 µM [inhibitor, single point]"
Cc1ccc(-c2ccc(/C=N/NC(N)=S)o2)cc1,–,"inconclusive: 17.8 µM [inhibitor, full curve, poor fit]"
COC(=O)c1cc(COc2ccc3oc(C)c(C(=O)OC(C)C)c3c2)c(C)o1,–,inactive
O=C(/C=C/c1cc(Br)ccc1O)c1ccco1,inactive: 11.4% [at 11.4 µM],–
CCCc1[nH]nc2c1C(c1ccc(Br)s1)C(C#N)=C(N)O2 (stereo unspecified),–,"inconclusive: 79.4 µM [inhibitor, partial curve, poor fit]"
CCn1c(=O)cc(OCC(=O)N2CCCC2)c2ccccc21,–,"inconclusive: 79.4 µM [inhibitor, partial curve, poor fit]"
COc1ccc(-c2ccc(C(=O)C3CC3)cc2)cc1,–,inactive
COc1ccc(N(C(=O)/C=C/C(=O)Nc2cc(C)on2)C(C(=O)NC2CCCC2)c2ccccc2C)cc1 (stereo unspecified),–,inactive
C=C1C[C@@]23CC[C@H]4[C@@](C)(CCC[C@@]4(C)C(=O)OC4OC(CO)C(O)C(O)C4O)[C@@H]2CC[C@]1(OC1OC(CO)C(O)C(O)C1OC1OC(CO)C(O)C(O)C1O)C3 (stereo partly specified),–,inactive
CC(=O)N1CCN(c2ccc(NCc3ccc(C)cc3)cc2)CC1,–,"inconclusive: 89.1 µM [inhibitor, partial curve, poor fit]"
O=C(Nc1ccc([N+](=O)[O-])cc1)C(Cc1ccccc1)N1C(=O)c2cccc3cccc(c23)C1=O (stereo unspecified),–,inactive
COC(=O)c1ccc(Oc2cc(C)nc(Cl)n2)cc1,–,inactive
C#CCOCCOCCOCCNc1nc(N2CCOCC2)nc(N2CCN(C(=O)[C@H](CCCN=C(N)N)n3cc(C(N)[C@@H](C)CC)nn3)CC2)n1 (stereo partly specified),–,inactive
